Results as given in the RNAGym collection of RNA variant scans (doi:10.7554/elife.90254).
Read counts are not given, so values of variants with three or more changes are uncertain.

B1: OR4K15 (parent)
chain: GUUAACGGUCAUAGGCCAUGGAAACUAGGAGCACCAUUUCGCUGCCAGUGAAGAAAUGAACAAAGAAAAUCUGGGCCAGGCAGGCAUCAAAAGAAAUAGUCUUGCGCUCAACCAGAAAGUCUGUAAUCAUUUUAAGGGUA

Variants of: B1
Assay: self-cleavage, relative activity (ratio to wild type); higher = more cleavage; in vitro, sequencing; the parent is a self-cleaving ribozyme

Variant	self-cleavage
A51G A69G A95G A134G	1.44
U2C A30G A95G A111G	0
A66C A96G A111G A135G	0.02
G15C U43A A78G A140G	0.24
A5G A52G A64G U70C A78G	0.16
A22G U120C U127A A129G	0.88
U9C A111G U120C	0.02
A5G A90G U122C	0
G7A A13G A78U	0.69
U2C A64G A78U A98G U122C	0.07
U43C A59G U72A U122C	0.11
U2C A23G U37C U38C U57G A94G U100C U103C U130C	1.39
U2C A69G A94C U120C	0.44
G58U U102G U120C	0.18
A33U A55U A59U	1.6
A4G U9C A33G U103C	0.83
G7A A33G A82G	0.12
G15C U38C U100C	2.58
A51G A59G A67U A118G	0.89
U9C A68G U108C	0.01
U39A A91G U100C	2.55

Variant	self-cleavage
U9A A30G A54U A92G	1.27
A4G A11U U49C U72C U130C	0.16
A116G U127C U132C	0.09
A47G A55G G83A U131C	1.6
U39C A52G A92G	0.93
U2C A47U A56U U132C	0.77
A27G A33G U37C A82G	0.14
A23G A27G A125G	0.55
U2G A66G A69G U72C	0.51
A33U A55G A110G	0.22
A56G A66G U100C	1.29
A63G A86U A111C A129G	0
A47U A89U U124C A126G	0.09
U12C A18U A60G U70C A86U	1.15
A55G C113G G137C	0.01
U39C A52G U127C	0.84
U19A A59G A64U	1.22
U37C U38C A51G A62G U122A	1.8
U37G U87C A90G	0.46
A22U A33G A60G A63U A69C U70C	0.97
U3C A18U A110U U130C	0.47

Variant	self-cleavage
U2C A18G U37C U39C A67G A135G	0.62
U2C A30G A91G	0.74
A51U A78U A111U	0
A47C A94G U108C A116G	0.01
A5U G20U A24G A36G A62G G73U	0.28
A66G A89G A110G A126U	0.12
U19C A33U A52G	1.5
U39C C77U A82G	1.03
U49C A52G A55G A116G U120C	0.24
U9C A22G A30U U38C	1.01
A52G C88G A91G	0.99
U12C A55G U72C U122C	0.04
A24G A62C A78G A91G	0.03
C46U A60U A78G	0.6
U43G A111U U124C	0.24
G1A A33G A78U A116G	0.18
C6A U37G U39C A55G U87C A111G	0.04
G7A A54G A63U	1.57
U2C C35A A82G A94G	0.64
A33G A63G A89G U103C A114G A125G	0.03
A11G A24G A36U A51G A64G	1.43

Variant	self-cleavage
A11G A52U C76U U122C	0.21
A11G A62G A68G	1.17
A30G A54G U100C A111G	0.02
U12C A22U A47G A66G U103C	0.32
G1U A67G A96U A140G	1.72
A30U A95G U97A	0.77
U9C U49A A92G	1.53
A59U A63G A118G	1.74
A30G U57C A78U U122C	0.14
U2C G84A A94G U122A	1.42
A23U A67G U103C	0.79
C16A U19C A23G G48A A118G	0.54
A51U A66G A67G U87C A90G	0.56
G7A A52U A90G	2.01
A51G U102C U120C	1.96
A23G A33G A78U C113U	0.02
A27G A33G A66G U131C	0.31
A82G A94G A125G	0.16
U39C A67G A96G	1.27
A51G A56G A67G U70G U97G	1.18
